Reference: the GPR68 mutational scans of Howard et al. (2025)

B1: GPR68, Q15743 (parent)
chain: MGNITADNSSMSCTIDHTIHQTLAPVVYVTVLVVGFPANCLSLYFGYLQIKARNELGVYLCNLTVADLFYICSLPFWLQYVLQHDNWSHGDLSCQVCGILLYENIYISVGFLCCISVDRYLAVAHPFRFHQFRTLKAAVGVSVVIWAKELLTSIYFLMHEEVIEDENQHRVCFEHYPIQAWQRAINYYRFLVGFLFPICLLLASYQGILRAVRRSHGTQKSRKDQIQRLVLSTVVIFLACFLPYHVLLLVRSVWEASCDFAKGVFNAYHFSLLLTSFNCVADPVLYCFVSETTHRDLARLRGACLAFLTCSRTGRAREAYPLGAPEASGKSGAQGEEPELLTKLHPAFQTPNSPGSGGFPTGRLA

Key:
[1] = variants of: B1; test: cAMP reporter score (Enrich2 score, wild type = 0); higher = more signal; HEK293T, FACS bins
[2] = variants of: B1; test: surface expression score (Enrich2 score, wild type = 0); higher = more signal; HEK293T, FACS bins

Variant	cAMP reporter score ([1]; pH 5.5)	cAMP reporter score ([1]; pH 6)	cAMP reporter score ([1]; pH 6, modulator: ogerin)	cAMP reporter score ([1]; pH 6.5, modulator: ogerin)	surface expression score [2]
V230L	1.09	3.2	0.93	2.2	–
V230M	-1	-0.933	-1.24	-1.07	-1.29
V230N	-0.891	-1.64	-1.18	-0.949	-3.04
V230P	-0.957	-1.47	-1.56	-1.98	-3.41
V230S	-1.2	-1.5	-1.36	-0.776	-0.602
V230T	-0.727	–	-2.77	-1.19	–
V230W	-1.75	-0.692	–	0.158	–
V230_L231insGS	-1.71	-2.3	–	-0.164	–
L231_T233del	-1.15	-1.41	-1.21	-1.61	-2.48
L231del	-1.28	-1.4	-1.3	-0.894	-2.31
T233_V234insG	-2.29	-1.42	-3.23	-1.1	-2.73
T233_V234insGS	-1.64	-0.666	-1.62	-1.74	-2.27
T233_V234insGSG	-1.4	-0.456	-1.14	-1.39	-2.07
T233del	-1.3	-1.38	-2.13	-0.956	-2.61
V234_I236del	-1.59	–	–	-0.936	–
V234_V235del	-1.67	-1.3	-2.27	-1.51	-2.46
V234_V235insGS	-0.907	-0.803	-1.49	-0.693	-2.77
V234_V235insGSG	-1.09	-1.01	-2.12	-1.53	-2.73
V235_I236insG	-0.429	-1.71	-3.05	–	–
I236del	-3.54	–	–	-0.748	-1.22
F237A	0.452	-0.959	-0.869	-0.89	1.69
F237C	0.578	–	–	-1.17	0.892
F237D	-0.485	-0.58	-0.692	–	–

Variant	cAMP reporter score ([1]; pH 5.5)	cAMP reporter score ([1]; pH 6)	cAMP reporter score ([1]; pH 6, modulator: ogerin)	cAMP reporter score ([1]; pH 6.5, modulator: ogerin)	surface expression score [2]
F237E	-0.001	–	-1.26	-0.171	-0.93
F237G	-0.175	–	–	-1.09	1.25
F237I	-0.121	1.39	0.368	0.908	-0.157
F237K	0.205	1.15	-0.615	0.033	-0.104
F237L	0.375	1.12	0.365	0.95	-0.674
F237M	-0.088	-1.41	-0.688	-1.56	0.353
F237N	1.06	–	0.472	-0.854	-0.807
F237P	-0.379	–	1.14	0.894	-0.987
F237Q	-0.475	-1.48	-1.34	-1.21	-0.626
F237S	-1.08	–	-0.996	-0.549	0.525
F237T	0.384	-0.3	-0.084	-1.44	0.449
F237V	-0.31	0.147	-0.539	-0.778	0.1
F237W	0.193	–	0.187	0.983	-2.62
F237Y	-0.21	0.192	1.27	1.63	–
F237_A239del	-0.977	-1.31	-1.2	–	–
F237_L238del	-1.75	-0.944	-0.858	-1.65	-2.32
F237_L238insGS	-0.716	–	-1.59	-1.05	-2.32
F237_L238insGSG	-1.68	-1.86	-1.68	-1.66	-2.41
L238_A239del	-0.904	-1.21	-0.704	-0.954	-2.67
L238_A239insGS	-0.913	-0.922	–	-1.35	-2.02
L238_A239insGSG	-0.722	-0.89	-0.785	-0.664	-2.45
L238del	-1.03	-0.761	-2.24	-1.08	-0.286
A239C	1.26	0.82	1.73	1.38	1.41

Variant	cAMP reporter score ([1]; pH 5.5)	cAMP reporter score ([1]; pH 6)	cAMP reporter score ([1]; pH 6, modulator: ogerin)	cAMP reporter score ([1]; pH 6.5, modulator: ogerin)	surface expression score [2]
A239E	-0.974	-0.138	-1.01	-0.958	-0.815
A239G	0.036	-0.738	0.144	-0.033	0.745
A239H	-0.601	–	-0.689	–	-1.1
A239I	1.04	2.33	–	2.35	2.64
A239L	1.14	2.84	0.491	3.19	1.02
A239M	0.576	0.44	1.33	1.43	0.731
A239N	-0.567	-0.637	-1.61	-0.259	-2.6
A239P	-1.35	-0.673	–	-1.41	-1.8
A239Q	-1.23	-0.196	-1.61	-1.07	–
A239R	-0.431	-0.582	-0.651	–	-0.425
A239S	0.012	-0.764	-0.7	-0.522	0.15
A239T	0.013	–	-0.344	-0.456	0.7
A239V	1.68	2.01	1.5	1.15	1.94
A239W	0.489	0.204	0.26	-0.07	-1.42
A239Y	-0.875	-0.173	–	-1.08	-2.73
A239_C240insG	-1.31	-1.25	-1.03	-1.7	-2.55
C240A	0.241	-1.28	-0.075	0.662	-0.4
C240E	-0.478	–	–	-0.432	–
C240F	0.558	-0.191	-0.213	-0.696	1.18
C240G	1.19	-0.653	1.15	-0.226	-1.37
C240H	0.365	-0.609	-0.934	-1.09	–

Scores whose standard error is large were omitted. Not listed are two conditions whose scores span a narrow range. Read del as a deletion of the residues named and ins as an insertion between two positions. For some assays here: The concentration of ogerin is not given here.
